Variants at the background level are over-represented here.
B1: TPR 5TU (parent)
chain: GGAUCUUCUCGAUCUAACAAAAAAGACAAAUCUGCCACAAAGCUUGAGAGCAUCUUCGGAUGCAGAGGCGGCAGCCUUCGGUGGCGCGAUAGCGCCAACGUUCUCAACUAUGACACGCAAAACGCGUGCUCCGUUGAAUGGAGUUUAUCAUG

Variants of: B1
Assay: polymerase ribozyme fitness, log enrichment relative to wild type (log ratio); higher = more active; in vitro selection for triplet polymerase activity
Summary of the method: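 Each subunit of a heterodimeric triplet polymerase ribozyme was represented by a PCR-built, transcribed mutant library that underwent triplicate single-round in vitro selection with frozen incubation at −7 °C. Extended constructs were recovered by gel excision, streptavidin-bead capture and RT-PCR, and Illumina sequencing of input and output libraries kept genotypes with ≥10 input reads and ≥1 read per output. Fitness is the logarithm of genotype enrichment relative to wild-type enrichment, from inverse-variance-weighted replicate averages, with a logarithm base of 2.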

Variant	polymerase ribozyme fitness (log ratio)
C27A G59C C87G A107U C114U A115G G124U G141U	≤ -4.2
A26U A37G A40G C76G G81A A142C	≤ -4.2
A26U C54A C63U A73G C93U	≤ -4.2
A26U U55A C72A G81A C131G	≤ -4.2
A26U C43U U53A G100C	≤ -4.2
A26U G59C C79A G133U U151G	≤ -4.2
C27A A47U A106U U145A	≤ -4.2
A26U A47C C103A G141U	≤ -4.2
C27A G50C G80A C95U	≤ -4.2
C27G C43U A60C	≤ -4.2
C27U A40U G84A A113C A122G U145A	≤ -4.2
C27A G65A G71C C93U A106G G140C	≤ -4.2
C27U A28G	≤ -4.2
C27G U44G A60G G83U U101G U104A A106G	≤ -4.2
C27A G46A U53A U56G A91C A106C A110G A138G	≤ -4.2
A26U A30C A138C U139A	≤ -4.2
C27G G71A A138C A142C	≤ -4.2
C27G G65A C76G G86A G88C	≤ -4.2
C27G C35U G50U C85G	≤ -4.2
A26U G34U G59C G62A C75G C93G U104A G152A	≤ -4.2
A26U C35U C85U U90G C93G U148C	≤ -4.2

Variant	polymerase ribozyme fitness (log ratio)
C27G C85A A137C	≤ -4.2
C27G G71C G80U C85G	≤ -4.2
A26U G42A A64G G68A A91G U102G A106G G124C G136U	≤ -4.2
A26U A40U A91U A122U	≤ -4.2
A26U U101G G117U A137U	≤ -4.2
A26G U145A	-3.59
A26U A52U U53A C54U C99U A115G C123U U144A	≤ -4.2
C27A C54G C105U	≤ -4.2
C27G A30U A49C U55A C57G C63U	≤ -4.2
A26U C103A C114U	≤ -4.2
A26U C96U	-1.62
C27A U82C U148G A150C	≤ -4.2
C27A C95U C125G	≤ -4.2
A26U C35G C69A G92A C96A A97G A120C	≤ -4.2
A26U G46U	-3.87
A26U A49C U111G	≤ -4.2
A26U G46C C54G G62A C95G A122G	≤ -4.2
C27A C57U C75A C116A	≤ -4.2
A26U C57G G58C A91U C129A C132U U151A	≤ -4.2
C27A A47C U56C U77A C87A C95A A97C	≤ -4.2
A26U G46C U55A C93U C103A A106G C114A	≤ -4.2

Variant	polymerase ribozyme fitness (log ratio)
C27G C51A A52C C87G C96U C108A	≤ -4.2
A26U U53G G58C G92U C116G A119G	≤ -4.2
C27G A49G U55A C57G C93A G112A G141U A147C	≤ -4.2
A26U U53A C54G G94C G140U	≤ -4.2
A26U C35G A60U G68A C76G A119C A137C	≤ -4.2
C27U A66U C95A	≤ -4.2
A26U G59A G83A C87G C93G A97G U104C U139C	≤ -4.2
A26U U45A G68A C72U C87A	≤ -4.2
A26U U55A A66C C85A C99G A107U G117U	≤ -4.2
C27G A40U G58A A73C C76U C95G	≤ -4.2
A26U A39G G48C G71C U77A A89G A110C	≤ -4.2
A26U A30U A91U C116U	≤ -4.2
A26U C51A G94C	≤ -4.2
A26U C38U A47G A49U A52G G92U C103A C114A	≤ -4.2
C27A C87U U148A	≤ -4.2
C27G C54A C93A A115U	≤ -4.2
C27U A47U C87G U146A C149A	≤ -4.2
C27U A41U G80C C96U G136U A138U G143U	≤ -4.2
C27A A29U A91G A120U	≤ -4.2
A26U U31G A106U	≤ -4.2
C27A C43A A52U U55A U56A G92U	≤ -4.2

Variant	polymerase ribozyme fitness (log ratio)
C27A C32U G50C U55G U139G	≤ -4.2
C27A G83C	≤ -4.2
A26U A49U A91U C116A	≤ -4.2
C27A A28U A39C C54G C96A	≤ -4.2
C27U A40U G42C U77C G81A G83C	≤ -4.2
C27A C38U A52C U53G C72A U77C C79G G84A G124A U146C	≤ -4.2
A26U C35A	≤ -4.2
C27U A60U A73G G92A C96G A115G U144G	≤ -4.2
C27A C38G U82A G92U C114G	≤ -4.2
A26U C36U G74U C75G G124A	≤ -4.2
A26U A40G U55G G84U C96U A106G	≤ -4.2
A26U C63U G83A G94C U101A U134A U144G	≤ -4.2
C27G C32G A49C A60C C125G	≤ -4.2
C27G A29U A40C A98G C116G	≤ -4.2
C27G A39G C51G A89G G128C	≤ -4.2
C27G A40U G50C A73U G88U A91C C96G C123A	≤ -4.2
A26U G86A	-2.74
A26U A47G C54A C95U C96G A98U	≤ -4.2
A26U C35G G80A U102G C118A G133C	≤ -4.2
C27G A29G G46A G50A C85U C103A A137G G141U	≤ -4.2
